# In patent publication US20240408177A1 (ELLXIRON IMMUNOTHERAPEUTICS HONG KONG, published 2024):
# T1: Recombinant Human IL-10Rα (R&D systems 9100-R1) (human, UniProt Q13651 22-235)
# T1 construct: Coated on the ELISA plate at 0.8 µg/ml
# T1 sequence (looked up): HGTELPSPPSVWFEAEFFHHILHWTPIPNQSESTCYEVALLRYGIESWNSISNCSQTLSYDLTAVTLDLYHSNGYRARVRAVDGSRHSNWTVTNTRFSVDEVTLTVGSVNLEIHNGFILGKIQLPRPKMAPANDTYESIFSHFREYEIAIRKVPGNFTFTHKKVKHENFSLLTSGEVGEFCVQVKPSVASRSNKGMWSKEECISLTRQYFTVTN
# Biological target: T1, Recombinant Human IL-10Rα (R&D systems …)
# Experiment: ELISA, coated receptor (told again with the CD8+ T cell assay)
# Method: To further characterize IL10-Fc fusion comprising IL10 variants, all fusion proteins were further purified by gel filtration chromatography on a Superdex 200 Increase 10/300 GL column (GE Healthcare) with 1×PBS to remove aggregates. For the binding test, the IL10 (WT)-Fc or muteins were serial diluted with 1×PBS, then 100 μl were added to each well coated with 0.8 μg/ml Recombinant Human IL-10Rα (R&D systems 9100-R1) or 0.1 μg/ml Recombinant Human IL-10Rβ (Sinobiological 10945-H08H). The plate was incubated at 37° C. for 1.5 hours and unbound IL10-Fc were washed away with 1× PBST for three times. Addition of HRP-conjugated anti-human Fc antibody and incubated at 37° C. for one hour. Washed away excess detection antibody and added 3,3′,5,5′-tetramethylbenzidine to each well. After incubation, add equal volume of stopping solution (2M H₂SO₄) and read absorbance at 450/650 nm. […] We also used the IL-10Rα binding ELISA to investigate the of freeze-thaw stability of IL10 (R104Q)-Fc. IL10-Fc fusion protein in PBS was freeze-thawed five times. The cycles consisted of placing samples at −70° C. more than 24 hours. The next day, the sample were thawed at room temperature for at least 1 hour. […] In contrast, the binding of IL10 (R104Q)-Fc to human IL-10Rα was not changed after five freeze-thawing treatment.
row,Binder,binding result
1,IL10 (R104Q)-Fc (Fc fusion) SPGQGTQSENSCTHFPGNLPNMLRDLRDAFSRVKTFFQMKDQLDNLLLKESLLEDFKGYLGCQALSEMIQFYLEEVMPQAENQDPDIKAHVNSLGENLKTLRLQLRRCHRFLPCENKSKAVEQVKNAFNKLQEKGIYKAMSEFDIFINYIEAYMTMKIRNGGGGSGGGGSGGGG[human IgG1 Fc not written out],binds
2,IL10 (R107A)-Fc (Fc fusion) SPGQGTQSENSCTHFPGNLPNMLRDLRDAFSRVKTFFQMKDQLDNLLLKESLLEDFKGYLGCQALSEMIQFYLEEVMPQAENQDPDIKAHVNSLGENLKTLRLRLRACHRFLPCENKSKAVEQVKNAFNKLQEKGIYKAMSEFDIFINYIEAYMTMKIRNGGGGSGGGGSGGGG[human IgG1 Fc not written out],binds
3,IL10 (R107E)-Fc (Fc fusion) SPGQGTQSENSCTHFPGNLPNMLRDLRDAFSRVKTFFQMKDQLDNLLLKESLLEDFKGYLGCQALSEMIQFYLEEVMPQAENQDPDIKAHVNSLGENLKTLRLRLRECHRFLPCENKSKAVEQVKNAFNKLQEKGIYKAMSEFDIFINYIEAYMTMKIRNGGGGSGGGGSGGGG[human IgG1 Fc not written out],binds
4,IL10 (R107Q)-Fc (Fc fusion) SPGQGTQSENSCTHFPGNLPNMLRDLRDAFSRVKTFFQMKDQLDNLLLKESLLEDFKGYLGCQALSEMIQFYLEEVMPQAENQDPDIKAHVNSLGENLKTLRLRLRQCHRFLPCENKSKAVEQVKNAFNKLQEKGIYKAMSEFDIFINYIEAYMTMKIRNGGGGSGGGGSGGGG[human IgG1 Fc not written out],binds
